# Measurements reported in article PMC4336329 (PLoS ONE, 2015).
# The whole screen tested about 310,000 compounds, of which about 2,200 (0.71%) showed an effect of 50% or more. The effect is printed as a negative number. Some of the results follow.
# Target: human ether-à-go-go-related gene (hERG) potassium channel (human, UniProt Q12809)
# Assay: primary screen, population patch clamp on CHO cells stably expressing hERG
# human ether-à-go-go-related gene (hERG) potassium channel, sequence (Q12809 whole entry, looked up): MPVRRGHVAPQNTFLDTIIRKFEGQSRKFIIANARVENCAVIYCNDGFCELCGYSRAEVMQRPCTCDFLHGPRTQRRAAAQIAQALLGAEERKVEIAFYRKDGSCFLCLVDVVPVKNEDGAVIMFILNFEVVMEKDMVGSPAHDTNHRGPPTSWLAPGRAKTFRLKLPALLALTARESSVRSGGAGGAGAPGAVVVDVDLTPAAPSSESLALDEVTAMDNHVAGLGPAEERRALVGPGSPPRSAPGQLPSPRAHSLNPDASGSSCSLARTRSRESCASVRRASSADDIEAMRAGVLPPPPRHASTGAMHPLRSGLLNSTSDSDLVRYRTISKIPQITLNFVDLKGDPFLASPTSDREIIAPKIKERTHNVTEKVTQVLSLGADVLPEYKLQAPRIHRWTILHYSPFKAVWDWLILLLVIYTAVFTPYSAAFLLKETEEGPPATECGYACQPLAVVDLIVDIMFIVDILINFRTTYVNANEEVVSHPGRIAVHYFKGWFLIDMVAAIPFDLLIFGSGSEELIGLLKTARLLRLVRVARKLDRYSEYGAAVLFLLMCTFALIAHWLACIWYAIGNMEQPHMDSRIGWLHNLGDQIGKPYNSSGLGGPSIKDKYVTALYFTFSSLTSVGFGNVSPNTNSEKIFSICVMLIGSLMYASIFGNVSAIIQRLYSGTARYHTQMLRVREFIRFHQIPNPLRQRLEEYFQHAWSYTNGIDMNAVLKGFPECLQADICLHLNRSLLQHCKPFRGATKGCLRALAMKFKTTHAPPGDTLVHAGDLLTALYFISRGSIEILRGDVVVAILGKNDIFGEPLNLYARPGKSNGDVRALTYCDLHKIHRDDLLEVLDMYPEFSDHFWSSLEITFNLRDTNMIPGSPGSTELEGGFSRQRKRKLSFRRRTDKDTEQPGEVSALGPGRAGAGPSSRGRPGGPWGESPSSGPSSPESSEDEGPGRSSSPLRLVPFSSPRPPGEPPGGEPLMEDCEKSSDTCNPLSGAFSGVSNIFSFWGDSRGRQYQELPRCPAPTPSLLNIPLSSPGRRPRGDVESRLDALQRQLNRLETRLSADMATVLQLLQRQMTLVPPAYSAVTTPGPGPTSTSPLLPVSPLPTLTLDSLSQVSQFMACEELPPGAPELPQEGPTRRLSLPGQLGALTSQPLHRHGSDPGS
row,Structure (SMILES),"hERG current change (%, negative = inhibition) at 1uM"
1,O=C(O)c1cccc(S(=O)(=O)N2CC=C(c3ccccc3)CC2)c1,2.39%
2,O=C(C[n+]1ccccc1)Nc1ccccc1C(=O)O.[Cl-],-1.28%
3,O=C(CCN1C(=O)/C(=C/c2ccc(F)cc2)SC1=S)NNC(=O)c1ccncc1,9.23%
4,O=C(CSc1nc(-c2ccccc2)cs1)N1CCc2ccccc21,-0.264%
5,CCC1CCCCN1C(=O)COc1ccc(N(C)S(=O)(=O)c2ccc(C)cc2)cc1 (stereo not shown),8.11%
6,N#C/C(=C\c1cccnc1)C(=O)NC1CCCCC1,14.1%
7,Cc1c(N=Cc2ccc(-c3ccc(Cl)cc3)o2)c(=O)n(-c2ccccc2)n1C,7.88%
8,O=S(=O)(c1cccs1)n1nnc2ccccc21,16.9%
9,COc1ccc(CCN(C)C(=O)CNC(=O)Cc2cccc3ccccc23)cc1OC,2.44%
10,COc1ccc(CCNC(=O)CN(C)S(=O)(=O)c2ccc3c(c2)CCC(=O)N3)cc1OC,13.8%
11,COc1ccc(Nc2oc(-c3ccccc3)nc2C#N)cc1,9.51%
12,Cc1cc(C)cc(N(C(=O)Cc2cccs2)C(C(=O)NC2CCCC2)c2ccc(C)o2)c1 (stereo not shown),2.72%
13,COc1ccc(OC)c(NC(=O)C2CCCN(S(=O)(=O)c3cccc4cccnc34)C2)c1 (stereo not shown),11.1%
14,CC1(C)C(CO)=CC(=O)C2=C1SCC(=O)N2,-13.1%
15,COc1cc(/C=C2\SC(=S)N(N3CCOCC3)C2=O)cc(OC)c1OC,13.7%
16,COc1ccccc1C1NC(=O)NC(C)=C1C(=O)Nc1cccc(C)c1C (stereo not shown),13.1%
17,COc1ccc2ccccc2c1/C=N/NC(=O)c1ccccc1F,7.02%
18,COc1cccc(CN2CCN(C3CCN(c4ccccc4C)CC3)CC2CCO)c1 (stereo not shown),-30.4%
19,O=C(COC(=O)C1CCN(S(=O)(=O)c2ccccc2C(F)(F)F)CC1)NCc1ccc(F)cc1,9.09%
20,COc1ccc(C(C(=O)NCC2CCCO2)N(Cc2ccc(F)cc2)C(=O)CNC(=O)c2ccco2)cc1OC (stereo not shown),16.4%
21,O=C(CC12CC3CC(CC(C3)C1)C2)N/N=C/c1ccc([N+](=O)[O-])o1,-2.93%
22,CN1CCN(C(CNS(=O)(=O)c2ccc(Br)cc2)c2ccc3c(c2)OCO3)CC1 (stereo not shown),-59.5%

row,Structure (SMILES),"hERG current change (%, negative = inhibition) at 1uM"
1,CCCn1c(CNC(=O)c2ccccc2)nc2ccccc21,-3.44%
2,O=C(Nc1cccc(Br)c1)c1ccc2snnc2c1,11.9%
3,COc1ccc(OCC(=O)N2CCN(C(=O)c3ccc(F)cc3)CC2)cc1,-10.8%
4,O=c1[nH]c2ccc(NC(=S)Nc3ccc(Cl)cc3Cl)cc2[nH]1,-1.31%
5,Cn1c(COc2ccc(F)cc2)nc2ccccc21,9.65%
6,O=C(O)c1ccc(-n2nnnc2Oc2ccccc2C(=O)N2CCOCC2)cc1,7.38%
7,Cc1cc(NC(=O)COC(=O)C2CC(=O)N(c3ccccc3Cl)C2)no1 (stereo not shown),17.8%
8,COc1ccc(C(=O)COC(=O)CCN=C2NS(=O)(=O)c3ccccc32)c(OC)c1,-4.54%
9,O=C1CSC(c2ccc(F)cc2)N1c1ccccc1F (stereo not shown),3.81%
10,O=C(Nc1ccccc1N1CCCCC1)c1cccc([N+](=O)[O-])c1,9.68%
11,Cc1nc2c3ccccc3nc(NNC(=O)CCC(=O)N3CCN(c4ccccc4)CC3)n2n1,11.7%
12,COCCN(Cc1ccccc1)C(=O)C1CCN(S(=O)(=O)c2ccc(OC)c(OC)c2)CC1,8.5%
13,Cl.Clc1ccc(CNCCCSc2ncccn2)cc1,7.51%
14,Cc1ccc(CONC(=O)c2ccc(C)cc2)cc1,8.7%
15,Cc1cn(-c2ccc(Br)cc2)[nH]c1=O,10.8%
16,CC(C)CC[n+]1ccn(-c2nc3ccccc3nc2[N-]S(=O)(=O)c2ccc(Cl)cc2)c1,13%
17,CCCCOC(=O)Nc1ccccc1C(=O)N1CCCC1,5.99%
18,Cc1ccc(NC(=O)C2CC=CCC2C(=O)N2CCCCC2)cc1 (stereo not shown),0.464%
19,O=C(NOC(=O)c1cc(Br)ccc1Cl)c1cccs1,10.6%
20,COc1ccc(C)cc1S(=O)(=O)Nc1ccncc1,8.1%
21,O=C(NCC(O)c1ccc([N+](=O)[O-])cc1)C1CCCCC1 (stereo not shown),12.3%
22,CC(C)C(NC(=O)c1ccc([N+](=O)[O-])cc1Cl)C(=O)N1CCCC1 (stereo not shown),9.21%

row,Structure (SMILES),"hERG current change (%, negative = inhibition) at 1uM"
1,Cc1cccc(N2CCN(C(=S)c3ccc(-c4ccccc4[N+](=O)[O-])o3)CC2)c1,0.626%
2,CC(C)C(OC(=O)c1cc2sccc2n1C)C(=O)NCC1CCCO1 (stereo not shown),-2.5%
3,O=C(O)c1ccccc1C(=O)Nc1nccs1,5.54%
4,CC1Cc2cc(S(=O)(=O)N3CCCC(C(=O)N4CCCCC4)C3)ccc2N1C(=O)C1CC1 (stereo not shown),10.1%
5,CC(C)(C)OC(=O)n1cc(C(=O)c2ccccc2O)cn1,16.8%
6,CCCC12CN3CCN(CC(C3)/C1=N\NC(=O)c1ccccc1N)C2,11%
7,Cn1c(CNc2cccc(Cl)c2)nnc1SCC(=O)OC1CCCCC1,8.3%
8,CCn1c(SCC(=O)Nc2cccc(C)c2)nc2c(c1=O)SC(C)C2 (stereo not shown),5.16%
9,Cc1oc2c(c1C(=O)NCc1ccccc1)CCCC2,10.7%
10,Cc1ccc(C2C3=C(CC(C)(C)CC3=O)Nc3onc(C)c32)cc1 (stereo not shown),7.47%
11,COc1ccc(C(=O)Nc2cccc3nc(C)ccc23)c(OC)c1,13%
12,CC(=O)Nc1ccc2c(c1)OCO2,12.8%
13,Cc1ccc2nc(NC(=O)[C@H](C)N3C(=O)C4CC=CCC4C3=O)sc2c1 (stereo partly shown),6.36%
14,CN(C)CCn1cnc2c1c(=O)[nH]c(=O)n2Cc1ccccc1.Cl,8.26%
15,COc1ccc(NC(=S)N2CCN(C/C=C/c3ccccc3)CC2)cc1OC,2.82%
16,CCc1ccc(N2C(=O)NC(=O)/C(=C\c3cccn3CCOc3ccc(C(C)C)cc3)C2=O)cc1,14.3%
17,N#Cc1ccccc1NC(=O)CN1CCN(Cc2ccccc2)CC1,-18.9%
18,Cc1cccc(C(=O)Nc2nnc(-c3ccco3)o2)c1,14%
19,CS(=O)(=O)N1CCc2cc(C(=O)N3CCCC3)ccc21,10.6%
20,CSc1nc(C)c2c(n1)N(c1ccc(F)cc1)CC2,20.1%
21,Cc1cccc(Cc2nnc(CCC(=O)NCc3ccncc3C)o2)c1,12.2%
22,Oc1ccc(Br)cc1C1Nc2ccccc2S1 (stereo not shown),18.4%

row,Structure (SMILES),"hERG current change (%, negative = inhibition) at 1uM"
1,Cc1cc(=O)n(CC(=O)NCCN2CCOCC2)c2c1c(C)nn2-c1ccccc1,20.4%
2,Cc1cc(=O)oc2c(CN3CC(C)OC(C)C3)c(O)c(Cl)cc12 (stereo not shown),17%
3,CCCOc1cccc(C2C(C(=O)c3ccco3)=C(O)C(=O)N2CCCn2ccnc2)c1 (stereo not shown),11.3%
4,COc1ccccc1/C=C1\SC(=S)N(NS(=O)(=O)c2ccccc2)C1=O,13.9%
5,Cc1ccc(C)c(N2CCN(C(=O)C3CCN(c4nnc(N5CCCC5=O)s4)CC3)CC2)c1,13.6%
6,CCn1c(CCNC(=O)c2ccc(Cl)cc2)nnc1SCC(=O)NC1CCCC1,0.748%
7,O=[N+]([O-])c1ccc(Cn2cc(-c3cccc(C(F)(F)F)c3)nn2)cc1,6.13%
8,O=C(CCCc1ccccc1)NCCS(=O)(=O)N1CCN(c2ccc(F)cc2)CC1,-11.4%
9,CCOC(=O)C1CCN(S(=O)(=O)c2ccc3c(ccn3C)c2)CC1,9.85%
10,CCOCCCn1c(SCC(=O)NCc2ccc3c(c2)OCO3)nc2ccccc2c1=O,-11.2%
11,CC(C)C(=O)NC(NC(=S)NC1CCS(=O)(=O)C1)C(Cl)(Cl)Cl (stereo not shown),14.6%
12,Cn1c(SCC(N)=O)nnc1C1CCN(C(=O)NC2CCCCC2)CC1,11.1%
13,CCCCCOC(=O)Cn1c(=O)oc2ccc(C)cc21,10.1%
14,COc1cc(/C=C2\SC(=O)NC2=O)ccc1Oc1ccc([N+](=O)[O-])cn1,7.31%
15,COc1cc2c3c(c1OC)C1(C=CC(=O)C=C1)CC3N(C(=O)c1ccccc1)CC2 (stereo not shown),-5.13%
16,CCOC(=O)c1cccc(NC(=O)C2CCCN(S(=O)(=O)c3cnc[nH]3)C2)c1 (stereo not shown),9.37%
17,CCOC(=O)CNC(=O)c1nn(-c2ccc(OCC)cc2)c(=O)c2ccccc12,8.34%
18,O=C(Nc1ccnn1C1CCN(Cc2ccccn2)CC1)c1cccc(F)c1,6.56%
19,COc1ccc(N(CC(=O)N/N=C/c2cccnc2)S(=O)(=O)c2ccc(C)cc2)cc1OC,-1.14%
20,Cc1ccc(NC(=O)CC(=O)c2ccccc2)cc1C,10.5%
21,CCOC(=O)CNS(=O)(=O)CCN1C(=O)c2ccccc2C1=O,4.71%
22,CCn1c(N)c(C(=O)COC(=O)CCc2nc3ccccc3c(=O)[nH]2)c(=O)[nH]c1=O,10.7%
